Measurements as given in patent US20220259327A1 (published 2022).

Target: T1, human fibroblast activation protein (FAP) on cells (human, UniProt Q12884 1-760)
T1 construct: also called human FAP; huFAP
Experiment: flow cytometry, MV-3 and WM-266-4 cells

B1: bivalent FAP (4B9)-targeted 4-1BB ligand (71-248) trimer-containing Fc (kih) fusion molecule Construct 2.6 (Fc fusion)
heavy 1: EVQLLESGGGLVQPGGSLRLSCAASGFTFSSYAMSWVRQAPGKGLEWVSAIIGSGASTYYADSVKGRFTISRDNSKNTLYLQMNSLRAEDTAVYYCAKGWFGGFNYWGQGTLVTVSSASTKGPSVFPLAPSSKSTSGGTAALGCLVKDYFPEPVTVSWNSGALTSGVHTFPAVLQSSGLYSLSSVVTVPSSSLGTQTYICNVNHKPSNTKVDKKVEPKSCDKTHTCPPCPAPEAAGGPSVFLFPPKPKDTLMISRTPEVTCVVVDVSHEDPEVKFNWYVDGVEVHNAKTKPREEQYNSTYRVVSVLTVLHQDWLNGKEYKCKVSNKALGAPIEKTISKAKGQPREPQVCTLPPSRDELTKNQVSLSCAVKGFYPSDIAVEWESNGQPENNYKTTPPVLDSDGSFFLVSKLTVDKSRWQQGNVFSCSVMHEALHNHYTQKSLSLSPGGGGGSGGGGSREGPELSPDDPAGLLDLRQGMFAQLVAQNVLLIDGPLSWYSDPGLAGVSLTGGLSYKEDTKELVVAKAGVYYVFFQLELRRVVAGEGSGSVSLALHLQPLRSAAGAAALALTVDLPPASSEARNSAFGFQGRLLHLSAGQRLGVHLHTEARARHAWQLTQGATVLGLFRVTPEIPAGLGGGGSGGGGSREGPELSPDDPAGLLDLRQGMFAQLVAQNVLLIDGPLSWYSDPGLAGVSLTGGLSYKEDTKELVVAKAGVYYVFFQLELRRVVAGEGSGSVSLALHLQPLRSAAGAAALALTVDLPPASSEARNSAFGFQGRLLHLSAGQRLGVHLHTEARARHAWQLTQGATVLGLFRVTPEIPAGL
heavy 2: EVQLLESGGGLVQPGGSLRLSCAASGFTFSSYAMSWVRQAPGKGLEWVSAIIGSGASTYYADSVKGRFTISRDNSKNTLYLQMNSLRAEDTAVYYCAKGWFGGFNYWGQGTLVTVSSASTKGPSVFPLAPSSKSTSGGTAALGCLVKDYFPEPVTVSWNSGALTSGVHTFPAVLQSSGLYSLSSVVTVPSSSLGTQTYICNVNHKPSNTKVDKKV[no letters for human IgG1 Fc with changes]GGGGSGGGGSREGPELSPDDPAGLLDLRQGMFAQLVAQNVLLIDGPLSWYSDPGLAGVSLTGGLSYKEDTKELVVAKAGVYYVFFQLELRRVVAGEGSGSVSLALHLQPLRSAAGAAALALTVDLPPASSEARNSAFGFQGRLLHLSAGQRLGVHLHTEARARHAWQLTQGATVLGLFRVTPEIPAGL
light: EIVLTQSPGTLSLSPGERATLSCRASQSVTSSYLAWYQQKPGQAPRLLINVGSRRATGIPDRFSGSGSGTDFTLTISRLEPEDFAVYYCQQGIMLPPTFGQGTKVEIKRTVAAPSVFIFPPSDEQLKSGTASVVCLLNNFYPREAKVQWKVDNALQSGNSQESVTEQDSKDSTYSLSSTLTLSKADYEKHKVYACEVTHQGLSSPVTKSFNRGEC
Does B1 bind?
Result: binds
